{"source": "paper PMC4336329", "about": "(PLoS ONE, 2015)", "note": "The campaign covered roughly 310,000 compounds. About 14,000 (4.5%) showed an effect of 50% or more. The effect is printed as a negative number. The list shows a part of the results.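 Note: peak tail current of the secondary pulse compared with the same well before compound.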"}
{"target": "human ether-à-go-go-related gene (hERG) potassium channel (human, UniProt Q12809)", "sequence (Q12809 whole entry, looked up)": "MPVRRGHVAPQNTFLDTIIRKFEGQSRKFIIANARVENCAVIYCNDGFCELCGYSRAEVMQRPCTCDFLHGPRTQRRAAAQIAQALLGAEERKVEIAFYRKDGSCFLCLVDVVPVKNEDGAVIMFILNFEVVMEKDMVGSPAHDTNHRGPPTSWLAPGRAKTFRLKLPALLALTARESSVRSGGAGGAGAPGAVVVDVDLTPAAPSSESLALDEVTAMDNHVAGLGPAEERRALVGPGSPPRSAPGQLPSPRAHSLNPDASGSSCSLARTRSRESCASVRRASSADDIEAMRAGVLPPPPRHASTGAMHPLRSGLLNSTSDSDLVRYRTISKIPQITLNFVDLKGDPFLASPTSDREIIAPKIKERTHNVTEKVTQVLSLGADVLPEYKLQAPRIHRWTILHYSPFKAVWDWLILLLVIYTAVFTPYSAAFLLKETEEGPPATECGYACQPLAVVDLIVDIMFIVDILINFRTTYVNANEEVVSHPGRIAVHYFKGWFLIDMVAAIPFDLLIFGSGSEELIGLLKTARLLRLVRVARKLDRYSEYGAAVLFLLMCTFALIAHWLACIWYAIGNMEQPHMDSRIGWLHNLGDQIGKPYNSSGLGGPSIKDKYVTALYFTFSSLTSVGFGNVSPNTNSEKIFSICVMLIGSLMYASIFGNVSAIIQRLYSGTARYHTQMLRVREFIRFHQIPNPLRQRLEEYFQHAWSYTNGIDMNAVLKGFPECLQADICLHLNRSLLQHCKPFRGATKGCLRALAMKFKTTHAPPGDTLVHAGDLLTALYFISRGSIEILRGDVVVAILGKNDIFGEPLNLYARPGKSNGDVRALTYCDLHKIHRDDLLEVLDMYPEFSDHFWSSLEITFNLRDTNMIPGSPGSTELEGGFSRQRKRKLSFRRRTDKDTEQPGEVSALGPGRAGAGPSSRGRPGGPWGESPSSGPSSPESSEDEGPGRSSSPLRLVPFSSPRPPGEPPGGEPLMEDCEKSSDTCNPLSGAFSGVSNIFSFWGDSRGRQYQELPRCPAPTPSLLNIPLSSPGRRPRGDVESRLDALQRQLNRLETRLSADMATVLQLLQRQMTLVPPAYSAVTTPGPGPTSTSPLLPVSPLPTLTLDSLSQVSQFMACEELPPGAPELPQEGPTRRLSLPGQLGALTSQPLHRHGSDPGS", "assay": "primary screen, population patch clamp on CHO cells stably expressing hERG", "units": {"hERG current change (%, negative = inhibition) at 10uM": "%"}}
{"smiles": "O=C(Nc1nccs1)c1ccc(S(=O)(=O)N2CCCCC2)cc1", "hERG current change (%, negative = inhibition) at 10uM": 3.29}
{"smiles": "CCc1c(O)c(/C(C)=N\\O)c(=O)n(-c2ccccc2)c1-c1ccccc1", "hERG current change (%, negative = inhibition) at 10uM": 6.42}
{"smiles": "Cc1ccc(C(=O)N/C(=C/c2cccs2)C(=O)N2CCCCCC2)cc1", "hERG current change (%, negative = inhibition) at 10uM": -46}
{"smiles": "COc1ccc2[nH]c(=O)c(CN(C(=O)NC3CCCCC3)C3CCCCC3)cc2c1", "hERG current change (%, negative = inhibition) at 10uM": -12.9}
{"smiles": "CCCC[n+]1ccn(-c2nc3c([N+](=O)[O-])cccc3n2C)c1.[I-]", "hERG current change (%, negative = inhibition) at 10uM": 8.72}
{"smiles": "O=C(NCc1cccs1)c1nc2c(nnn2Cc2ccc(F)cc2)c(=O)[nH]1", "hERG current change (%, negative = inhibition) at 10uM": -13.3}
{"smiles": "Cc1ccc(C(=O)OCC(=O)NC2CC2)cc1S(=O)(=O)N1CCOCC1", "hERG current change (%, negative = inhibition) at 10uM": 11.1}
{"smiles": "CCn1c(CNC(=O)c2ccco2)nnc1SCC(=O)c1ccccc1", "hERG current change (%, negative = inhibition) at 10uM": 9.27}
{"smiles": "Cc1cccc(C(=O)Nc2ccc(C(=O)N/N=C/c3ccc(C)o3)cc2)c1", "hERG current change (%, negative = inhibition) at 10uM": -13.2}
{"smiles": "C=CCNC(=O)c1ccc(C)cc1Cl", "hERG current change (%, negative = inhibition) at 10uM": -16.7}
{"smiles": "COc1ccc(CN(C(=O)CNC(=O)c2ccco2)C(C(=O)NCC2CCCO2)c2ccc(OC)c(OC)c2)cc1", "note": "(stereo not shown)", "hERG current change (%, negative = inhibition) at 10uM": 14.3}
{"smiles": "O=C(O)C1C2CCC(O2)C1C(=O)Nc1ccc(F)c(Cl)c1", "note": "(stereo not shown)", "hERG current change (%, negative = inhibition) at 10uM": 24.7}
{"smiles": "Cc1ccc(-c2noc(C3CCCN(C(=O)c4cccc(Cl)c4)C3)n2)o1", "note": "(stereo not shown)", "hERG current change (%, negative = inhibition) at 10uM": -43.4}
{"smiles": "COc1ccc(C(=O)C[n+]2ccc3c(c2)nnn3-c2ccccc2)cc1.[Br-]", "hERG current change (%, negative = inhibition) at 10uM": -60.5}
{"smiles": "O=C(CSc1ncnc2c1oc1ccccc12)Nc1cccc(C(F)(F)F)c1", "hERG current change (%, negative = inhibition) at 10uM": 11}
{"smiles": "CCCOc1ccc(-c2nnn(CC(=O)c3ccc4c(c3)OCCO4)n2)cc1", "hERG current change (%, negative = inhibition) at 10uM": 14.8}
{"smiles": "COCC1CCN(Cc2cn[nH]c2-c2ccc(OC)c(F)c2)C1", "note": "(stereo not shown)", "hERG current change (%, negative = inhibition) at 10uM": -4.22}
{"smiles": "CNC(=S)N(Cc1cccs1)Cc1cc2cc(OC)c(OC)cc2[nH]c1=O", "hERG current change (%, negative = inhibition) at 10uM": -43.7}
{"smiles": "COc1ccc(C(=O)n2nc(C)cc2Nc2ccccc2)cc1", "hERG current change (%, negative = inhibition) at 10uM": 1.61}
{"smiles": "CN1CCN(C(=O)C2C3C=CC(C3)C2C(=O)O)CC1", "note": "(stereo not shown)", "hERG current change (%, negative = inhibition) at 10uM": 4.89}
{"smiles": "CCc1ccc(Oc2ncnc(N)c2[N+](=O)[O-])cc1", "hERG current change (%, negative = inhibition) at 10uM": 15.8}
{"smiles": "COc1ccc(-c2ccc(CCC(=O)O)n2-c2ccccc2O)cc1", "hERG current change (%, negative = inhibition) at 10uM": 18.3}
{"smiles": "C[C@@H]1CCC[C@@]2(O[C@@H](CCO)C[C@@H](O)[C@@H]2O)O1", "hERG current change (%, negative = inhibition) at 10uM": 2.06}
{"smiles": "CCn1c(=O)n(CC)c2cc(N3CCCC3)c(NC(=O)c3cccc(Cl)c3)cc21", "hERG current change (%, negative = inhibition) at 10uM": 3.07}
{"smiles": "COc1ccc(CCn2c(O)c(C=Nc3ccccc3F)c(=O)[nH]c2=O)cc1OC", "hERG current change (%, negative = inhibition) at 10uM": 20.3}
{"smiles": "CNc1nc(N)c([N+](=O)[O-])c(NCc2ccccc2)n1", "hERG current change (%, negative = inhibition) at 10uM": -1.09}
{"smiles": "CC1NC(=O)NC1CCCCC(=O)O", "note": "(stereo not shown)", "hERG current change (%, negative = inhibition) at 10uM": -8.16}
{"smiles": "CCC(Cc1ccccc1)NS(=O)(=O)c1ccc2c(c1)NC(=O)CO2", "note": "(stereo not shown)", "hERG current change (%, negative = inhibition) at 10uM": -2.42}
{"smiles": "CCC1(C)Cc2ccccc2-c2[nH][nH]c(=O)c21", "note": "(stereo not shown)", "hERG current change (%, negative = inhibition) at 10uM": 22.7}
{"smiles": "CN(C)c1nc(SCC(=O)Nc2ccc(Cl)c(Cl)c2)nc(N2CCOCC2)n1", "hERG current change (%, negative = inhibition) at 10uM": -3.51}
{"smiles": "CCC1(CC)C(=O)C2=C3C1[C@H](C(=O)OC)C=C(C(=O)OC)C[C@H]3[C@H]1C(=O)N(CC(=O)OC)C(=O)[C@H]1[C@H]2C", "note": "(stereo partly shown)", "hERG current change (%, negative = inhibition) at 10uM": 5.84}
{"smiles": "BrC(/C=N/N1CCN(Cc2ccccc2)CC1)=C/c1ccccc1", "hERG current change (%, negative = inhibition) at 10uM": -4}
{"smiles": "CC(C)C(=O)OC1CCS(=O)(=O)c2sccc21", "note": "(stereo not shown)", "hERG current change (%, negative = inhibition) at 10uM": 19.9}
{"smiles": "O=C(O)C(=O)O.OC(CNCC1COc2ccccc2O1)COCc1cccs1", "note": "(stereo not shown)", "hERG current change (%, negative = inhibition) at 10uM": -49.8}
{"smiles": "COc1ccc(Oc2cc(C)nc(Cl)n2)nn1", "hERG current change (%, negative = inhibition) at 10uM": 21.3}
{"smiles": "COc1ccc(C)cc1S(=O)(=O)NCC(c1cccnc1)N1CCc2ccccc2C1", "note": "(stereo not shown)", "hERG current change (%, negative = inhibition) at 10uM": -25.3}
{"smiles": "Cc1ccccc1OCC(=O)N/N=C/c1ccco1", "hERG current change (%, negative = inhibition) at 10uM": 13.3}
{"smiles": "COc1cc(C2CC(=O)N3CN(c4ccccc4C)CSC3=C2C#N)cc(OC)c1OC", "note": "(stereo not shown)", "hERG current change (%, negative = inhibition) at 10uM": 3.31}
{"smiles": "O=C(COC(=O)c1cccc(-n2cnnn2)c1)c1ccc(F)cc1", "hERG current change (%, negative = inhibition) at 10uM": -0.561}
{"smiles": "O=C(c1ccc2c3c(cccc13)CC2)C1CCCN(C(=O)c2ccc[n+]([O-])c2)C1", "note": "(stereo not shown)", "hERG current change (%, negative = inhibition) at 10uM": -18}
{"smiles": "CC(NC(C)c1ccccc1Cl)C(=O)Nc1cccc(S(=O)(=O)N2CCCCC2)c1", "note": "(stereo not shown)", "hERG current change (%, negative = inhibition) at 10uM": 1.12}
{"smiles": "CC(=O)NCc1ccc(S(=O)(=O)N/N=C/c2ccccc2)cc1", "hERG current change (%, negative = inhibition) at 10uM": 18.7}
{"smiles": "CC(C)(C)c1cc(CN2CCN(CCO)CC2)cc(C(C)(C)C)c1O", "hERG current change (%, negative = inhibition) at 10uM": -19}
